Reference: the supplement of paper PMC12355420
Where a name gives a salt, the structure may show the parent alone. The list shows a part of the results. Cut-off read from the data, not from the text of the source: active = 0.5 or less and inactive = the rest. Repeats are few or missing, and single values can be far off.

Assays:
Conditions in all cases: 50 µM; 24 h
[1] = tested on: HeLa VPS33A reporter cells; assay: relative cell viability (CellMask signal) vs DMSO (fraction of DMSO); higher = less cytotoxic;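 note: primary screen of an FDA-approved drug library in HeLa reporter cells in 96-well format, CellMask signal normalized to DMSO-treated wells set as 1, under 0.5 deemed highly cytotoxic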
[2] = tested on: HeLa VPS33A R498W KI + HA-SDC1-FLAG; assay: relative GAG core protein HA-SDC1 amount per cell number vs DMSO (fraction of DMSO); higher = more SDC1 (GAG core protein);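 note: HA-SDC1 level read out by In-Cell Western staining with an anti-HA antibody against the N-terminal tag, screening FDA-approved library drugs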
[3] = tested on: HeLa VPS33A KO + NLuc-VPS33A R498W; assay: relative mutant VPS33A R498W amount (NanoLuc luminescence) vs DMSO (fraction of DMSO); HeLa model of a glycosaminoglycan (GAG) storage disease; KI is knock-in and KO knock-out; SDC1 is syndecan 1; higher = higher mutant VPS33A level;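 note: screen of an FDA-approved drug library, NanoLuc luminescence read after lysing the treated cells, taken as a measure of mutant VPS33A protein stability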

Row | SMILES | relative cell viability [1] | relative GAG core protein HA-SDC1 amount per cell number [2] | relative mutant VPS33A R498W amount [3]
1 | CN1c2c([nH]c(N)nc2=O)NC[C@@H]1CNc1ccc(C(=O)N[C@@H](CCC(=O)O)C(=O)O)cc1 [Levomefolate calcium] | 1.08 | inactive: 1.38 | 1.43
2 | Nc1nc(N)nc(-c2cc(Cl)ccc2Cl)n1 [Irsogladine] | 1.03 | inactive: 0.916 | 1.29
3 | CCN1CCN(c2cc3c(cc2F)c(=O)c(C(=O)O)cn3C2CC2)CC1 [Enrofloxacin] | 1.1 | inactive: 0.802 | 0.883
4 | CCN1CCCC1CNC(=O)c1cc(S(=O)(=O)CC)c(N)cc1OC (stereo not given) [Amisulpride] | 1.09 | inactive: 1.18 | 1.51
5 | N[C@@H](CC(=O)O)C(=O)O [L-Aspartic acid] | 1.05 | inactive: 0.761 | 0.979
6 | CCOC(=O)c1ncn2c1CN(C)C(=O)c1cc(F)ccc1-2 [Flumazenil] | 1.21 | inactive: 1.11 | 1.07
7 | N[C@@H](CC(=O)N1CCn2c(nnc2C(F)(F)F)C1)Cc1cc(F)c(F)cc1F [Sitagliptin] | 1.04 | inactive: 0.809 | 1.17
8 | CC(C)[C@H](N)C(=O)OCC(CO)OCn1cnc2c(=O)[nH]c(N)nc21 (stereo not given in full) [Valganciclovir HCl] | 1.08 | inactive: 0.926 | 1.65
9 | COc1c(N2C[C@@H]3CCCN[C@@H]3C2)c(F)cc2c(=O)c(C(=O)O)cn(C3CC3)c12 [Moxifloxacin HCl] | 0.993 | inactive: 1.37 | 2.13
10 | CN1CC(=O)NC1=N [Creatinine] | 1.1 | inactive: 0.977 | 0.933
